Results: the supplement of paper PMC4723716
± gives the uncertainty stated by the source. Whole data set: some 9,900 compounds, median “viability index relative to DMSO control” near 1, cut for the lowest 2% near 0.85. The list shows a part of the results.

system: Plasmodium falciparum NF54 stage V gametocytes; test: viability index relative to DMSO control (fraction); higher = less gametocyte killing; settings: 2.5 µM, library set: Broad Institute DOS, incubation time: 72 h
Procedure, shortened: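 Gametocytes (P. falciparum NF54, stage V) were treated with compound at 2.5 µM for 72 hr at 37°C in low oxygen, in serum-free medium at 0.75% gametocytemia and 1.25% hematocrit. Counts of 20–70 µm2 red particles, taken from one field per well after MitoTracker Red CMXRos with saponin, were divided by the plate mean of solvent-only wells. This ratio is the viability index.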

Compound	viability index
N#Cc1cccc(-c2ccc([C@H]3[C@@H]4CN(C(=O)C5CCOCC5)C[C@H]3N4)cc2)c1	1.08 ± 0.071
COc1cccc(-c2ccc3c(c2)O[C@@H](CN(C)Cc2cccnc2)[C@@H](C)CN([C@H](C)CO)S3(=O)=O)c1	0.97 ± 0.042
O=C(O)[C@@H]1[C@@H](CO)[C@@H]2Cn3c(ccc(-c4cccc(F)c4)c3=O)[C@@H]2N1C(=O)c1ccccn1	1.02 ± 0.03
C[C@H]1CCCCO[C@@H](CN(C)Cc2ccc3c(c2)OCO3)[C@@H](C)CN([C@@H](C)CO)C(=O)c2cc(NS(=O)(=O)c3cn(C)cn3)ccc2O1	1.08 ± 0.071
O=C([C@@H]1[C@@H](CO)[C@@H]2Cn3c(ccc(-c4ccc(F)cc4)c3=O)[C@@H]2N1Cc1cocn1)N1CCCCC1	0.896 ± 0.015
COC(=O)C[C@@H]1C[C@H]2c3cc(N)ccc3O[C@H]2[C@@H](CO)O1	1.145 ± 0.011
C[C@H](CO)N1C[C@H](C)[C@@H](CN(C)S(=O)(=O)c2cccs2)OCc2ccccc2-c2ccccc2C1=O	1.02 ± 0.054
C[C@@H]1CCCCO[C@@H](CN(C)Cc2ccncc2)[C@H](C)CN([C@H](C)CO)C(=O)c2cc(NS(=O)(=O)c3ccc(Cl)cc3)ccc2O1	1.025 ± 0.0067
C[C@@H]1CN([C@H](C)CO)C(=O)c2cc(NS(=O)(=O)c3ccccc3)ccc2O[C@@H](C)CCCCO[C@@H]1CN(C)C(=O)C1CCCCC1	1.01 ± 0.13
COc1ccc(S(=O)(=O)Nc2ccc3c(c2)CC(=O)N([C@H](C)CO)C[C@@H](C)[C@@H](CN(C)Cc2ccc(C(=O)Nc4ccccc4N)cc2)O3)cc1	0.956 ± 0.014
C[C@@H]1CN([C@@H](C)CO)S(=O)(=O)c2ccc(C#CC(C)(C)O)cc2O[C@@H]1CN(C)Cc1ccc(F)cc1	1.04 ± 0.061
C[C@H]1CN([C@@H](C)CO)C(=O)c2c(c3ccccc3n2C)-c2ccccc2CO[C@@H]1CN(C)C(=O)[C@@H](Cc1ccccc1)N(C)C	1.07 ± 0.11
COc1ccc(NC(=O)N(C)C[C@@H]2OCc3ccccc3-c3ccccc3C(=O)N([C@H](C)CO)C[C@@H]2C)c(OC)c1	0.941 ± 0.17
O=C1CNC[C@H]2[C@@H](c3ccc(-c4ccccc4F)cc3)[C@H](CO)N12	0.996 ± 0.019
C/C=C/c1ccc2n(c1=O)C[C@H]1[C@H](CO)[C@@H](C(=O)N3CCc4ccccc4C3)[C@@H]2N1Cc1cocn1.C/C=C\c1ccc2n(c1=O)C[C@H]1[C@H](CO)[C@@H](C(=O)N3CCc4ccccc4C3)[C@@H]2N1Cc1cocn1	0.932 ± 0.058
C[C@@H]1CN([C@@H](C)CO)C(=O)CCCn2nncc2CO[C@@H]1CN(C)S(=O)(=O)c1cn(C)cn1	1.07 ± 0.041
CO[C@@H](CN(C)C(=O)c1cc(Cl)cc(Cl)c1)[C@H](C)CN(C(=O)Nc1ccc(F)cc1)[C@@H](C)CO	1.07 ± 0.18
CC(=O)N1CCCCN2[C@@H](CO)[C@@H](c3ccc(-c4ccccc4)cc3)[C@@H]2C1	0.865 ± 0.2
O=C(Cc1ccccn1)N1CC2(C1)[C@@H](c1ccccc1)[C@@H](CO)N2C(=O)c1ccncc1	1.04 ± 0.046
CNC[C@@H]1OCc2cn(nn2)CCCC(=O)N([C@@H](C)CO)C[C@H]1C	1.03 ± 0.11
OC[C@@H]1[C@H](c2ccc(-c3cccc(F)c3)cc2)[C@H]2CN(Cc3cncnc3)CCCCN12	1.06 ± 0.036
CO[C@H](CN(C)C(=O)c1cc(Cl)cc(Cl)c1)[C@H](C)CN(C(=O)Nc1ccc(F)cc1)[C@H](C)CO	1.08 ± 0.028
CS(=O)(=O)N1CC(=O)N2[C@@H](CO)[C@H](c3ccc(C#Cc4ccc(F)cc4)cc3)[C@@H]2C1	1.0205 ± 0.00046

Compound	viability index
CCC(=O)N1CC2(C1)[C@@H](c1ccc(-c3ccc(F)cc3)cc1)[C@H](CO)N2C(C)=O	1.12 ± 0.041
CCN1[C@@H]2Cn3c(ccc(-c4ccccc4OC)c3=O)[C@H]1[C@@H](C(=O)NCc1ccccn1)[C@@H]2CO	0.945 ± 0.059
COc1ccc2c3c([nH]c2c1)[C@H](CO)N(C[C@]31CCN(CC1)C(=O)Cc1cccnc1)S(=O)(=O)c1ccc(C)cc1	0.75 ± 0.079
COc1ccc2c3c([C@H](CO)N(Cc4cccc(F)c4)C[C@]33CCN(CC3)C(=O)Cc3ccccc3)n(C)c2c1	0.947 ± 0.02
C[C@@H]1CN([C@@H](C)CO)C(=O)c2cc(NC(=O)C3CC3)ccc2O[C@H]1CN(C)S(=O)(=O)c1ccccc1	0.9821 ± 0.0066
COc1ccccc1S(=O)(=O)N(C)C[C@@H]1OCc2cn(nn2)CCCC(=O)N([C@H](C)CO)C[C@@H]1C	1.06 ± 0.044
COc1ccc2c3c([C@H](CO)N(C[C@]33CCN(CC3)C(=O)C3CCCC3)S(C)(=O)=O)n(C)c2c1	0.984 ± 0.11
C[C@@H](O)C#Cc1ccc([C@H]2[C@@H](CO)N3CCCCN(CC4CC4)C[C@H]23)cc1	1.01 ± 0.025
C[C@H](CO)N1C[C@H](C)[C@H](CN(C)C(=O)Nc2ccnc(N3CCOCC3)c2)OCc2cnnn2CCCC1=O	1.039 ± 0.0034
COc1ccc(CNC(=O)C[C@@H]2C=C[C@H](NC(=O)c3cccc(F)c3)[C@@H](CO)O2)cc1	0.967 ± 0.044
O=C(C[C@H]1C[C@H]2c3cc(NC(=O)c4cccnc4)ccc3O[C@H]2[C@H](CO)O1)NCc1cc(F)ccc1F	1.06 ± 0.019
CCC(=O)N1C[C@]2(CN(Cc3ccc(F)cc3)C2)c2c([C@H]1CO)n(C)c1cc(OC)ccc21	1.01 ± 0.043
C/C=C/c1ccc([C@@H]2[C@H]3CNC[C@@H]2N3C(=O)NCCC)cc1	1 ± 0.068
COc1ccc2c3c([C@H](CO)N(C[C@]33CCN(CC3)S(C)(=O)=O)C(=O)CN(C)C)n(C)c2c1	0.986 ± 0.08
C[C@@H]1CCCCO[C@@H](CN(C)C(=O)NC2CCCCC2)[C@H](C)CN([C@H](C)CO)C(=O)c2cc(N(C)C)ccc2O1	1.082 ± 0.0051
CCS(=O)(=O)N1CC[C@@]2(CC1)CN[C@H](CO)c1c2c2ccc(OC)cc2n1C	1.055 ± 0.0077
COc1ccc(S(=O)(=O)Nc2ccc3c(c2)OC[C@H](C)NC[C@@H](C)[C@H](OC)CN(C)C3=O)cc1	1.07 ± 0.017
N#C[C@H]1[C@@H](c2ccc(C3=CCCCC3)cc2)[C@H](CO)N1S(=O)(=O)c1ccccc1	1.094 ± 0.0056
COc1ccccc1-c1cn(CC[C@H]2CC[C@H](NC(=O)C3CCCCC3)[C@H](CO)O2)nn1	0.942 ± 0.028
CO[C@H]1CC[C@@H]2CCN(C)C(=O)CC3(CCCCC3)CN(C)C(=O)c3cc(C#N)ccc3OC[C@@H]1O2	1.01 ± 0.031
C[C@@H]1CN([C@@H](C)CO)C(=O)CCCn2nncc2CO[C@H]1CN(C)C(=O)c1cc(-c2ccccc2)on1	1.06 ± 0.026
C/C=C/c1cccc(-c2nc(C(=O)NCCN3CCCCC3)cc3c2[C@@H](CCO)N([S@](=O)C(C)(C)C)C3)c1	1.03 ± 0.015
COc1ccc([C@H]2C/C=C/C[C@H](C)Oc3ccccc3C(=O)N(C)[C@@H](C(C)C)C(=O)N2)c(OC)c1.COc1ccc([C@H]2C/C=C\C[C@H](C)Oc3ccccc3C(=O)N(C)[C@@H](C(C)C)C(=O)N2)c(OC)c1	0.9687 ± 0.0033

Compound	viability index
C[C@H]1CCCCO[C@@H](CN(C)C(=O)Nc2ccccc2)[C@@H](C)CN([C@@H](C)CO)C(=O)c2cc(NC(=O)Nc3ccccc3)ccc2O1	0.963 ± 0.11
CNC[C@@H]1Oc2c(NS(=O)(=O)c3ccc(Cl)cc3)cccc2C(=O)N([C@@H](C)CO)C[C@@H]1C	0.961 ± 0.026
C[C@@H]1C/C=C/C[C@@H](c2cccc(Cl)c2)NC(=O)[C@@H](Cc2ccccc2)N(C)C(=O)c2ccccc2O1.C[C@@H]1C/C=C\C[C@@H](c2cccc(Cl)c2)NC(=O)[C@@H](Cc2ccccc2)N(C)C(=O)c2ccccc2O1	0.812 ± 0.044
COc1cccc(S(=O)(=O)N2C[C@H](O)COC[C@H]3O[C@@H](CC(=O)N4CCN(c5ccccc5)CC4)CC[C@@H]32)c1	1.019 ± 0.0078
COc1ccccc1-c1cn(CC[C@@H]2CC[C@H](NC(=O)C3CCCCC3)[C@@H](CO)O2)nn1	1 ± 0.058
CO[C@@H]1CN(C)C(=O)c2ccc(NS(=O)(=O)CC(F)(F)F)cc2OC[C@@H](C)N(Cc2nccs2)C[C@H]1C	1.05 ± 0.025
CO[C@@H]1CN(C)C(=O)c2cc(NC(=O)c3ccc(Oc4ccccc4)cc3)ccc2OC[C@@H](C)NC[C@@H]1C	1.032 ± 0.0066
O=C(NC[C@@H]1N[C@@H](CO)[C@@H]1c1ccccc1)c1ccccc1F	1.09 ± 0.033
CCC(=O)N1[C@@H](CO)[C@@H](c2ccccc2)C12CN(C(=O)c1ccc3c(c1)OCO3)C2	1.07 ± 0.058
CCCC(=O)N1C[C@]2(CN(Cc3nccs3)C2)c2c([nH]c3cc(OC)ccc23)[C@H]1CO	0.973 ± 0.015
CC(C)(O)C#Cc1cccc(-c2nc(C(=O)O)cc3c2[C@@H](CCO)N(S(=O)C(C)(C)C)C3)c1 (some centres not stated)	1.03 ± 0.061
C[C@H](NC(=O)C[C@@H]1CC[C@H]2[C@H](COc3ccc(NS(=O)(=O)c4ccc(Cl)cc4)cc3C(=O)N2C)O1)c1ccccc1	0.927 ± 0.057
O=C1NCCOCc2cnnn2CC[C@H]1Cc1ccc(F)cc1	1 ± 0.2
CN1c2ccc(-c3ccccc3)cc2[C@@H]2[C@@H](CCN2C(=O)NC2CCCCC2)[C@@H]1CO	0.898 ± 0.14
COc1ccc2c3c([C@H](CO)N(C)C[C@]33CCN(CC3)S(=O)(=O)c3cccc(F)c3)n(C)c2c1	0.965 ± 0.025
CCc1csc(N2[C@H](C#N)[C@H](c3ccccc3-c3ccc(F)cc3)[C@H]2CO)n1	1.1 ± 0.056
CO[C@H]1CC[C@@H]2CCN(C)C(=O)[C@H](C)N(C)C(=O)c3cccc(C#N)c3OC[C@@H]1O2	1.12 ± 0.12
O=C(Nc1ccc(F)cc1)N1CC(=O)N2[C@H](CO)[C@@H](c3ccc(C#Cc4cccnc4)cc3)[C@@H]2C1	1.1 ± 0.022
C[C@H]1CN([C@@H](C)CO)C(=O)CCCn2nncc2CO[C@@H]1CN(C)C(=O)Nc1ccnc(N2CCOCC2)c1	0.962 ± 0.085
CC(C)NC(=O)Nc1cccc2c1O[C@H](CN(C)C(=O)Nc1ccccc1)[C@H](C)CN([C@H](C)CO)C2=O	1.03 ± 0.09
Cn1cnc(S(=O)(=O)N[C@@H]2CC[C@H](CC(=O)NCC3CCCCC3)O[C@@H]2CO)c1	1.05 ± 0.043
